Test results from paper PMC4336329 (PLoS ONE, 2015).
Hit rate of the full screen: of about 310,000 compounds, about 2,200 (0.71%) showed an effect of 50% or more. Effects have a minus sign here. Some of the results follow.

Target: human ether-à-go-go-related gene (hERG) potassium channel (human, UniProt Q12809)
Assay: primary screen, population patch clamp on CHO cells stably expressing hERG

Sequence of human ether-à-go-go-related gene (hERG) potassium channel (Q12809 whole entry, looked up): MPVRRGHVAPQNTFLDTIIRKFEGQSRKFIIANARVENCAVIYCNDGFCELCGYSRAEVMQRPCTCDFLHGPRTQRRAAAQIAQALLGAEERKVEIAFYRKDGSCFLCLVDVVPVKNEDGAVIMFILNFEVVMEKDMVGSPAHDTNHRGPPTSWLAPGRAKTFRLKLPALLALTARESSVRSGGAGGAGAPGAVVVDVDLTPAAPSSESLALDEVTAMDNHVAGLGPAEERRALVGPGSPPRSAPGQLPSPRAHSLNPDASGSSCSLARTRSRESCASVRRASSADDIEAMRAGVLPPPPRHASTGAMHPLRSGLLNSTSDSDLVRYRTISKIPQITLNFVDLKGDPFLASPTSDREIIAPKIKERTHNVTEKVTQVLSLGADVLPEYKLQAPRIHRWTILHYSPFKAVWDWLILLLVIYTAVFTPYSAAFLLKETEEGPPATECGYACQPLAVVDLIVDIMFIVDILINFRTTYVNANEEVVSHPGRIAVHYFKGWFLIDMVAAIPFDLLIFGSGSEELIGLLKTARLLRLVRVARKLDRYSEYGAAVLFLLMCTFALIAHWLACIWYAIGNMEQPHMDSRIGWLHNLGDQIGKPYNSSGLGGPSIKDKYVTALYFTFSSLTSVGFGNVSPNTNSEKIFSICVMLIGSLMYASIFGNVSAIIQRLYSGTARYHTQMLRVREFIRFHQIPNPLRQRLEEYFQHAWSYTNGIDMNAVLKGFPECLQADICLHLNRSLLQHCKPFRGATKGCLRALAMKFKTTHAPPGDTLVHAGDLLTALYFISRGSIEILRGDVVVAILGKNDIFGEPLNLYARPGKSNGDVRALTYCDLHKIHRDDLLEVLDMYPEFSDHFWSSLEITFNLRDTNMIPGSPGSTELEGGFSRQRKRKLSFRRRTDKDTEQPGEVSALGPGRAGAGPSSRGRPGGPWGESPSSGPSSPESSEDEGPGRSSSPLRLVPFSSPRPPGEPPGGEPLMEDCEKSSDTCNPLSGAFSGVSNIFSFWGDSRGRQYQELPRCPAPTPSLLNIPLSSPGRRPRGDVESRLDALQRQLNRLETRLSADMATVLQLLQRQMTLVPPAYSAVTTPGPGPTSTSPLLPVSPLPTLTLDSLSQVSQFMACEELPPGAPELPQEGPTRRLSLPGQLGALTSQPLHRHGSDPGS

| SMILES | hERG current change (%, negative = inhibition) at 1uM [%] |
| --- | --- |
| CCOc1ccc(NC(=O)CN(C)C(=O)c2ccc(COc3ccccc3)cc2)cc1OCC | 4.94 |
| CCC(C(=O)Nc1cc(C)cc(C)n1)c1ccccc1 (stereo not shown) | 6.28 |
| COc1ccc(NC(=O)Nc2ccc(O)c3ccccc23)cc1 | 12.1 |
| CCCCn1c(=NC(=O)c2ccco2)c(C(=O)OCC)cc2c(=O)n3cccc(C)c3nc21 | -16.5 |
| CCC(O)C1CCN(Cc2cn(-c3ccc(OC)cc3)nc2-c2cccc(F)c2)CC1 (stereo not shown) | -17.5 |
| CCc1ccc(NC(=O)CNC(=O)[C@@H]2Cc3ccccc3CN2C(=O)OC(C)(C)C)cc1 | 2.75 |
| CCn1nc(NS(=O)(=O)c2ccc(NC(C)=O)cc2)c2cc3cc(C)ccc3nc21 | 8.67 |
| CCOC(=O)Nc1ccc(C(=O)Oc2ccccc2)c(O)c1 | 12.8 |
| Cc1ccc(C(=O)CSc2nnnn2Cc2ccccc2)cc1C | 18.1 |
| COc1cc(/C=C2/C(=N)N3N=C(CC(=O)N4CCOCC4)SC3=NC2=O)ccc1OCc1ccccc1 | 16 |
| O=C(Oc1ccc(Br)cc1)c1cncc(Br)c1 | 9.89 |
| CCN(CC)CCOc1ncnc2c1oc1ccccc12 | -4.09 |
| O=C(O)CNC(=O)c1ccccc1 | 12.8 |
| CN(C)Cc1ccc(F)cc1Sc1cc(Cl)ccc1Cl.Cl | 12.9 |
| COC(=O)c1sccc1NC(=O)c1c(C)noc1C | 8.24 |
| O=C(CN1CCN(Cc2cccc(F)c2)CC1)Nc1ccccc1F | -1.76 |
| CCOC(=O)c1ccc(-c2c(-c3ccc4c(c3)OCO4)noc2-c2ccsc2)cc1F | 1.32 |
| CN(C(=O)c1ccc(NC(=O)Cc2ccc(NC(=O)C3CCN(C(=O)c4ccccc4)CC3)cc2)cc1)C1CC1 | 14.9 |
| Cc1nn(Cc2ccccc2)c(Cl)c1C(=O)NCc1ccco1 | 2.6 |
| Cc1onc(C(=O)Nc2sc3c(c2C(N)=O)CCCC3)c1[N+](=O)[O-] | 10.8 |
| O=C1C(=O)N(CCCn2ccnc2)C(c2ccc(Cl)cc2)/C1=C(\O)c1ccc2c(c1)OCCO2 (stereo not shown) | 17.5 |
| COCCCNC(=O)c1cccs1 | 11.4 |

| SMILES | hERG current change (%, negative = inhibition) at 1uM [%] |
| --- | --- |
| NP(=O)(OCC(F)(F)F)Oc1ccc(Cl)cc1 (stereo not shown) | 6.8 |
| CCCC(C)NC(=O)CSCc1ccc(OC)cc1 (stereo not shown) | 15 |
| COC(=O)CSc1nc(C2CC2)nc2ccccc12 | 3.01 |
| COc1ccc(N(CC(=O)N2CCCCCC2)S(=O)(=O)c2ccccc2)cc1 | 7.03 |
| O=c1cc(C(F)(F)F)nc(SC/C=C/c2ccccc2)[nH]1 | 7.13 |
| COc1cccc(S(=O)(=O)Nc2ccc(C(=O)N3CCCCCC3)cc2)c1 | 14.1 |
| CN(C)/C=C/C(=O)C(Cl)(Cl)Cl | 16 |
| COc1cccc(N2CCN(CC(=O)NC3=Nc4ccccc4N=C(C)C3c3ccccc3)CC2)c1 (stereo not shown) | 5.74 |
| COc1cc(O)c(C(CC(=O)N2CCCC(C)C2)c2cc(OC)c(OC)c(OC)c2)c(OC)c1 (stereo not shown) | 11.2 |
| CC(=O)Nc1ccc(S(=O)(=O)NCC(=O)NC(C)c2ccc(S(N)(=O)=O)cc2)cc1 (stereo not shown) | 11.4 |
| O=S1(=O)C=C(N2CCCCC2)c2ccccc21 | -2.89 |
| Cc1ccccc1-c1cc(C(=O)NCc2cccc(C(F)(F)F)c2)nn1CC1CC(c2cccc([N+](=O)[O-])c2)=NO1 (stereo not shown) | 11.1 |
| CCCn1nnc(NC(=O)c2ccc(Br)o2)n1 | 11.9 |
| CCOc1ccc(CNC(=O)CN2C(=O)C(c3ccccc3)Oc3cccnc32)cc1 (stereo not shown) | 2.93 |
| CCOC(=O)CNC(=S)N(Cc1ccco1)Cc1ccccc1Cl | 7.92 |
| Cc1csc(NC(=O)c2ccc(C)c([N+](=O)[O-])c2)n1 | -2.03 |
| OC(COc1ccccc1)CN(Cc1ccccc1)CC(O)COc1ccccc1 (stereo not shown) | 3.76 |
| Cc1cc(NC(=O)Cn2cnc3c(cnn3C(C)(C)C)c2=O)no1 | 8.56 |
| Cc1cc(C)nc(SCC(=O)c2ccc(F)cc2)n1 | 10.1 |
| O=c1[nH]c(C2CCN(S(=O)(=O)c3ccccc3)CC2)nc2c1nnn2Cc1ccccc1 | 12.6 |
| COc1ccc(S(=O)(=O)Nc2ccccc2C(=O)N2CCCC2)cc1OC | 8.14 |
| O=C1N=C(N2CCN(c3ccccc3)CC2)S/C1=C/c1cccs1 | -7.01 |

| SMILES | hERG current change (%, negative = inhibition) at 1uM [%] |
| --- | --- |
| Cc1cc(C)c(C#N)c(N2CCN(CCOc3ccc(Cl)cc3)CC2)n1 | 2.01 |
| O=C(CCCCC(=O)Nc1ccc(F)cc1)Nc1ccc(F)cc1 | 12.8 |
| CS(=O)(=O)/C(C#N)=C/c1cccn1S(=O)(=O)c1ccccc1 | 14.3 |
| C=CCn1cnc2c(oc3ccccc32)c1=O | 11.2 |
| Cc1ccccc1NC(=O)Cc1nc(CSc2nnc(C3CCCCC3)n2N)cs1 | 2.59 |
| Cc1ccc(NC(=O)CN2c3cccc4cccc(c34)S2(=O)=O)cc1S(=O)(=O)N1CCOCC1 | 4.03 |
| CC(OC(=O)CN1C(=O)NC2(CCCCC2C)C1=O)c1ccccc1 (stereo not shown) | 4.46 |
| Cc1ccc(S(=O)(=O)NC(=O)NCc2ccccn2)cc1 | 7.43 |
| CN1CCN(C(=O)c2cnn3c2NC(c2ccccc2)CC3C(F)(F)F)CC1 (stereo not shown) | 13 |
| COc1cccc(-n2nnnc2SCC(=O)Nc2ccc(OC)cc2OC)c1 | -3.45 |
| COc1ccc2c(CC(=O)OCC(=O)Nc3ccc(C)cc3)coc2c1 | 0.61 |
| COCCCNC(=O)c1ccccc1Oc1ccccc1 | 3.11 |
| COC(=O)c1ccc(NC(=O)CCS(=O)(=O)c2ccc(Br)cc2)cc1 | 14.2 |
| CCC(C)C(=O)Nc1nnc(SCC(=O)NC(C)(C)C)s1 (stereo not shown) | 22.6 |
| O=C(NCc1ccc(F)cc1)C(=O)NCC1OCCN1C(=O)c1cccs1 (stereo not shown) | 3.51 |
| Cc1ccc(C(=O)/C=C/C(=O)c2ccc(C)cc2)cc1 | 7.16 |
| CCOc1ccc(CCNC(=O)c2ccc(C)c(N3CCCC3=O)c2)cc1OCC | 12.4 |
| CCCN(CC(=O)Nc1ccccc1C)C(=O)c1ccc(S(=O)(=O)N2CCCCC2)cc1 | 8.84 |
| COc1cc(C(=O)NCC(=O)NCCN2C(=O)S/C(=C\c3ccccc3Cl)C2=O)cc(OC)c1OC | 7.22 |
| COC(=O)c1ccccc1NC(NC(=O)c1ccco1)C(=O)c1ccccc1 (stereo not shown) | -3.73 |
| Cc1csc(NC(=O)CCN2C(=O)c3ccccc3S2(=O)=O)n1 | 1.86 |
| COc1ccc(-n2nnnc2-c2cccnc2)cc1 | 15.5 |

| SMILES | hERG current change (%, negative = inhibition) at 1uM [%] |
| --- | --- |
| CN(C)S(=O)(=O)c1ccc(Cl)c(NC(=O)COC(=O)C2CSC3(C)CCC(=O)N23)c1 (stereo not shown) | 7.9 |
| COc1nc(Oc2ccc(=O)[nH]n2)nc(N2CCOCC2)n1 | 2.16 |
| Cc1nc(-c2ccccc2)nc(Cl)c1Cl | -10.3 |
| CC(C)(C)OC(=O)N[C@H](C(=O)OC(C)(C)C)c1ccc(Br)cc1 | 8.95 |
| COc1ccc(CCNc2nc(Cl)nc(NC(C)(C)CO)n2)cc1OC | 17.5 |
| COc1ccc(C2C(C#N)=C(N)OC3=C2C(=O)CC(C)(C)C3)c([N+](=O)[O-])c1OC (stereo not shown) | 2.91 |
| Cc1cc(C)nc(NN2C(=O)/C(=C/c3ccccc3)SC2=S)n1 | 7.8 |
| CN1CCN(c2ccc(NC(=O)C(C)(c3ccccc3)c3ccccc3)cc2)CC1 | -15.9 |
| COc1cccc(CC(=O)Nc2nc(-c3ccc(OC)c(OC)c3)cs2)c1 | 12.6 |
| CC(=O)c1ccc(NC(=O)c2ccc(CNc3c(N4CCCC4)c(=O)c3=O)cc2)cc1 | 11.9 |
| Cc1cccc(NC(=S)Nc2c(C)n(C)n(-c3ccccc3)c2=O)c1C | -2.46 |
| CC(Sc1nc(N)cc(=O)[nH]1)C(=O)Nc1sc2c(c1C#N)CCCC2 (stereo not shown) | 17.7 |
| CCC1CCCCN1CCCn1c(=S)[nH]c2ccccc2c1=O (stereo not shown) | -35.5 |
| CCNc1nc(NC(C)(C)C)nc(SC(C(C)=O)C(C)=O)n1 | 9.66 |
| CS(=O)(=O)c1ccc2nc(NC(=O)c3ccc(=O)[nH]c3)sc2c1 | 9.55 |
| O=C(Nc1ccc(NC(=O)c2ccco2)nc1)c1cccc(F)c1 | 16.7 |
| Nc1nc(CSc2ccccc2)nc(N2CCCCC2)n1 | 5.51 |
| O=C(NC1CCCc2ccccc21)c1cccc(S(=O)(=O)N2CCN(c3ccccc3)CC2)c1 (stereo not shown) | -1.36 |
| CSc1ccc(C(=O)C2CCCN(C(=O)c3ccc4c(c3)OCO4)C2)cc1 (stereo not shown) | -1.19 |
| CC(C)Cn1c(N)c(C(=O)CSc2ncccn2)c(=O)n(C)c1=O | 12.8 |
| COc1ccc(NC(=O)C(c2cc3c(cc2[N+](=O)[O-])OCO3)N(C)c2ccccc2)cc1 (stereo not shown) | 5.11 |
| Nc1c(Br)c(=O)[nH]c(=O)n1-c1ccc(F)cc1 | 18.5 |
